pEC50: −log10 of the molar value.
Assays:
[1] = tested on: whole optic nerves isolated from adult rats; test: oligodendrocyte death (chromatin condensation, caspase-3) in isolated optic nerve in situ
EAAT2 (GLT-1) = test: expression in isolated optic nerve after stimulation with glutamate; parameters: species or system rat; conditions: glutamate 1 mM, 3 hours of incubation
EAAT1 (GLAST) = test: as above; parameters: species or system rat; conditions: glutamate 1 mM, 3 hours of incubation
[2] = tested on: whole optic nerves isolated from adult rats; test: extracellular glutamate levels in isolated optic nerve perfused with transporter inhibitor; parameters: species or system rat
Description: In order to determine if the inhibition of glutamate transporters is toxic for oligodendrocytes in a preparation of in situ nervous tissue, whole optic nerves isolated from adult rats were perfused with TBOA in aCSF for 6 hours.

[3] = tested on: GLAST and GLT-1 glutamate transporters; test: whole cell patch clamp recording of glutamate transporter currents in cultured oligodendrocytes; assay type: cell-based, rat; conditions: TBOA 1 mM
Description: Electrophysiological recordings were carried out on 2 to 5 days-old cultures, following previously published protocols (Patneau et al., 1994, Neuron 12, 357-371). Cells were registered in a chamber which allows changing the composition of the extracellular medium by means of constant flow (0.5 to 1 ml/minute). Registering electrodes used were glass capillaries containing specific solutions compatible with cytoplasmic ionic concentrations. The study of the responses mediated by the glutamate transporters was carried out using whole cell patch clamp.

oligodendrocytes = test: oligodendroglial death in vitro after inhibition of glutamate transporters; assay type: cell-based, rat; conditions: CTZ 100 μM
Description: Cell cultures were prepared from 12 days-old rat optic nerve following standard protocols, which have been adapted and introduced into the laboratory as recently reported (Matute et al., 1997, Proc. Natl. Acad. Sci. USA 94: 8830-8835).

## N#Cc1cc2c(cc1[N+](=O)[O-])=NC(=O)C(=O)N=2 [CNQX, 6-cyano-7-nitroquinoxalin-2,3-dione]
[1]; incubation with TBOA in the presence of CNQX 30 μM
  effect on TBOA-induced oligodendrocyte death in optic nerve: prevents oligodendrocyte death

## N[C@@H](CCC(=O)O)C(=O)O [glutamate]
EAAT2 (GLT-1)
  expression of EAAT2 (GLT-1) transporter: increase
EAAT1 (GLAST)
  expression of EAAT1 (GLAST) transporter: increase

## N[C@H](C(=O)O)[C@H](OCc1ccccc1)C(=O)O (racemic) [TBOA, DL-threo-β-benzyloxyaspartate]
[1]; perfusion in aCSF for 6 hours
  increase in number of cells showing chromatin condensation and activation of caspase-3 versus control nerves: > 3 fold
[1]; read-out: cells showing chromatin condensation and activation of caspase-3, EC50, perfusion in aCSF for 6 hours
  pEC50: 3.95
[2]; maximal concentration of TBOA, 6 hours
  extracellular levels of glutamate: doubled
[2]; perfusion in aCSF for 6 hours, read-out: increase of extracellular levels of glutamate EC50
  pEC50: 4.11
[3]
  effect on currents induced by glutamate or aspartate: inhibited

## NS(=O)(=O)c1cc2c(cc1Cl)NC(C1CC3C=CC1C3)NS2(=O)=O (stereo not drawn) [cyclothiazide]
oligodendrocytes
  effect on TBOA-induced oligodendroglial death: enhanced
